# Inconclusive results, whose numbers are uncertain, are shown with a selection of clear calls. Potencies of inconclusive entries are left out as doubtful fits. The source made the active and inactive calls. The call rests on the fitted dose curve; in most records, active means well fitted curve in the direction sought with a large enough effect; inconclusive means small, poorly fitted or top-dose-only effect, or another doubt; inactive means no such curve, though single readings can be large; an effect the other way counts as inactive or inconclusive.
# Legend:
# [1] = Primary redox qHTS assay for identification of artifact compounds. (AID 1845223)
# Method in brief: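 Amplex Red (25 uM) and HRP (250 mU/mL) in HBSS, with compounds for 15 min, then 250 uM DTT for 30 min, room temperature, dark. Fluorescence 525/598 nm read; normalized to DMSO and 10 uM DA3003; Hill fit.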
# [2] = Quantitative High-Throughput drug screen in 47 multiple myeloma cell lines against the NCATS MIPE library collection: FR4_PLB cell viability assay (AID 1918924; further: nearly all actives have a fitted effect of over 35% in size)
# Method in brief: (§1)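 CellTiter-Glo luminescence (ATP) after 48 h compound exposure, 37C/5% CO2; 500 cells/well; MIPE 4.0 approved/investigational drugs pinned in; DMSO = 100%, media only = 0% viability.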
# [3] = Quantitative High-Throughput drug screen in 47 multiple myeloma cell lines against the NCATS MIPE library collection: Delta47_JCRB cell viability assay (AID 1918925; further: nearly all actives have a fitted effect of over 45% in size); conditions: Delta47 myeloma viability, CellTiter-Glo ATP, 48 h; viability (% of DMSO): at 45.8 µM (top of the series)
# Method in brief: (§2)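 Inhibition of cell viability is measured here. Each line was plated at 500 cells per well, treated with MIPE 4.0 drugs, kept 48 hours at 37C, then assayed for ATP content by CellTiter-Glo luminescence.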
# [4] = Quantitative High-Throughput drug screen in 47 multiple myeloma cell lines against the NCATS MIPE library collection: EJM_DSMZ cell viability assay (AID 1918926; further: nearly all actives have a fitted effect of over 30% in size)
# Method in brief: as §2
# [5] = Quantitative High-Throughput drug screen in 47 multiple myeloma cell lines against the NCATS MIPE library collection: ARP1_JJKsccF8 cell viability assay (AID 1918928; further: nearly all actives have a fitted effect of over 40% in size); conditions: ARP1 myeloma cells viability, CellTiter-Glo ATP, 48 h; viability: at 45.8 µM (top of the series)
# Method in brief: (§3)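 ATP readout (CellTiter-Glo), 48 h drug incubation, 37 °C/5% CO2, 500 cells per well; normalisation to DMSO (100%) and media-only (0%) controls.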
# [6] = Quantitative High-Throughput drug screen in 47 multiple myeloma cell lines against the NCATS MIPE library collection: KMM1_JCRB cell viability assay (AID 1918960); conditions: KMM1 myeloma viability, CellTiter-Glo ATP luminescence, 48 h; viability (% of DMSO): at 45.8 µM (top of the series); further: nearly all actives have a fitted effect of over 30% in size
# Method in brief: as §3
# [7] = Quantitative High-Throughput drug screen in 47 multiple myeloma cell lines against the NCATS MIPE library collection: AMO1_DSMZ cell viability assay (AID 1918927; further: nearly all actives have a fitted effect of over 30% in size); conditions: AMO1 myeloma cells viability, CellTiter-Glo ATP luminescence, 48 h; series mostly up to 45.8 µM
# Method in brief: as §2
# [8] = Quantitative High-Throughput drug screen in 47 multiple myeloma cell lines against the NCATS MIPE library collection: ARD_JJKsccE7 cell viability assay (AID 1918929); conditions: ARD myeloma cell line viability, CellTiter-Glo, 48 h; viability: at 45.8 µM (top of the series)
# Method in brief: as §2
# [9] = Quantitative High-Throughput drug screen in 47 multiple myeloma cell lines against the NCATS MIPE library collection: Karpas620_DSMZ cell viability assay (AID 1918959); further: nearly all actives have a fitted effect of over 30% in size
# Method in brief: as §1
# Potency means the concentration at half of the fitted maximal effect; tags describe the fitted curve by direction and shape.
compound,measurement,setting,value
CC1CCCCCC(=O)c2c(O)cc(O)cc2CC(=O)O1 (stereo not drawn),Potency,[1],inactive
O=C(O)c1ccnc2cc(C(OCCN3CCCCC3)c3ccccc3Cl)[nH]c12 (stereo not drawn),Potency,[1],"inconclusive [activator, single point]"
COC1CC(OC2CCC3(C)C(CCC4C3CCC3(C)C(C5=CC(=O)OC5)C(OC(C)=O)CC43O)C2)OC(C)C1OC1OC(CO)C(O)C(O)C1O (stereo not drawn),Potency,[1],"inconclusive [activator, single point]"
O=C1N[C@@H](Cc2ccccc2)CN2CCCC[C@@H]12,Potency,[1],inactive
CC(=O)O[C@H]1C[C@@H](C)O[C@H]2O[C@@H]3CC4CC[C@@H]5C(CC[C@]6(C)[C@@H](C7=CC(=O)OC7)CC[C@]56O)[C@@]4(C=O)C[C@H]3O[C@]21O (stereo partly drawn),Potency,[1],"inconclusive [activator, single point]"
CC1CCCC(=O)CCC/C=C/c2cc(O)cc(O)c2C(=O)O1 (stereo not drawn),Potency,[1],"inconclusive [activator, partial curve, poor fit]"
CC1=CC2(O)/C=C/C(C)(O)C(O)C(O)/C=C/C(=O)OC23C(=O)NC(CC(C)C)C3C1C (stereo not drawn),Potency,[1],inactive
O=C(OC[C@H]1O[C@@H](Oc2ccc(O)cc2CO)[C@H](O)[C@@H](O)[C@@H]1O)c1ccccc1,Potency,[1],inactive
Cc1sc2c(c1C)C(c1ccc(Cl)cc1)=N[C@@H](CC(=O)OC(C)(C)C)c1nnc(C)n1-2,Potency,[2],active: 0.332 µM
same,Potency,[3],active: 0.743 µM
same,Potency,[4],"inconclusive [cytotoxic, partial curve]"
CN(C)[C@@H]1C(=O)C(C(N)=O)=C(O)[C@@]2(O)C(=O)C3=C(O)c4c(O)cccc4[C@@](C)(O)[C@H]3C[C@@H]12,Potency,[2],"inconclusive [cytotoxic, partial curve, poor fit]"
same,Potency,[3],inactive
C[C@]12CC[C@@H]3c4ccc(OC(=O)N(CCCl)CCCl)cc4CC[C@H]3[C@@H]1CC[C@@H]2OP(=O)(O)O,Potency,[1],"inconclusive [activator, partial curve, poor fit]"
same,Potency,[2],"inconclusive [cytotoxic, single point]"
same,Potency,[3],inactive
same,Potency,[5],inactive
same,Potency,[6],inactive
CC[C@H]1C2CC3[C@@H]4N(C)c5ccccc5[C@]45C[C@@H]([C@H]2[C@H]5O)N3[C@H]1O,Potency,[1],"inconclusive [activator, single point]"
CO[C@@H]1[C@H](O)[C@@H](O[C@@H]2C[C@H]3CC[C@@H]4C(CC[C@]5(C)[C@@H](C6=CC(=O)OC6)CC[C@]45O)[C@@]3(C)[C@H](O)C2)O[C@H](C)[C@@H]1O[C@@H]1O[C@H](CO)[C@@H](O)[C@H](O)[C@H]1O (stereo partly drawn),Potency,[1],"inconclusive [activator, partial curve, poor fit]"
O=C(O)CCCCCCNC1c2ccccc2CCc2ccccc21,Potency,[1],inactive
COC1CC(OC2CCC3(C=O)C(CCC4C3CCC3(C)C(C5=CC(=O)OC5)CCC43O)C2)OC(C)C1O (stereo not drawn),Potency,[1],"inconclusive [activator, partial curve, poor fit]"
Cc1cc(SCc2sc(-c3ccc(C(F)(F)F)c(F)c3)nc2C)ccc1OCC(=O)O,Potency,[1],"inconclusive [activator, partial curve, poor fit]"
same,Potency,[3],"inconclusive [cytotoxic, single point]"
same,Potency,[4],inactive
same,Potency,[7],"inconclusive [cytotoxic, single point]"
same,Potency,[5],"inconclusive [cytotoxic, partial curve, poor fit]"
same,Potency,[8],"inconclusive [cytotoxic, full curve, poor fit]"
same,Potency,[9],"inconclusive [cytotoxic, partial curve, poor fit]"
same,Potency,[6],"inconclusive [cytotoxic, single point]"
CC[C@@H]1C[C@H]2CC[C@H](O2)[C@H](C)C(=O)O[C@@H](C)C[C@@H]2CC[C@@H](O2)[C@@H](C)C(=O)O[C@H](CC)C[C@H]2CC[C@H](O2)[C@H](C)C(=O)O[C@@H](C)C[C@@H]2CC[C@@H](O2)[C@@H](C)C(=O)O1,Potency,[1],"inconclusive [activator, partial curve]"
COC(=O)[C@@]1(C)C(=O)C=C[C@]2(C)c3c(O)cc(C(C)C)cc3[C@H](O)[C@@H](OC(C)=O)C12 (stereo partly drawn),Potency,[1],inactive
CC1=CC2/C=C(\C)CCC(O)C(O)C(O)CC(=O)C23C(=O)NC(CC(C)C)C3C1C (stereo not drawn),Potency,[1],"inconclusive [activator, full curve, poor fit]"

# From PubChem BioAssay (NCATS)
